Experimental data reported in the RNAGym collection of RNA variant scans (doi:10.1093/nar/gkz1192).
The source gives no read counts; variants with many changes may rest on few reads.

B1: CPEB3 Ribozyme (parent)
chain: UAACAGGGGGCCACAGCAGAAGCGUUCACGUCGCAGCCCCUGUCAGAUUCUGGUGAAUCUGCGAAUUCUGCUGUAUAUCUC

Variants of: B1
Assay: self-cleavage, relative activity (ratio to wild type); higher = more cleavage; in vitro, sequencing
Outline: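 Relative activity compares each variant's cleaved/total read fraction with that of the unmutated ribozyme. To get these fractions, barcoded CPEB3 ribozyme libraries from rounds of error-prone PCR were transcribed with T7 RNA polymerase for 5 hours at 37°C and then given 15 min of DNase I treatment before EDTA was added. The RNAs were reverse transcribed with template switching and sequenced on Illumina, and DNA sequencing linked barcodes to variants. A minimum of 5 reads applied, and three batches were averaged.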
For UAACAGUGGGCCACAGCAGAAGCGUUCACGUCGCAUCCCCUGUCAGAUUCUGGUGGAUCUGCGAAUUCUGCUGUAUACCUC [G7U G36U A56G U78C], the self-cleavage was 0.05. With UAACAGUGGGCCACAGCAGAAGCGCUCACGUCGCAGCCCUUGUCAGAUUCUGGUGAAUCUGCGGAUUCUGCUGUAUAUCUC [G7U U25C C40U A64G] the self-cleavage was 0.41. Work on UAACAGUGGGCCACAGCAGAAGCGCUCACGUCGCAGCCCCUGUCAGAUCCUGGUGAAUCUGCGAAUUCUGCUGUAUAUCCC [G7U U25C U49C U80C] yielded a self-cleavage of 0.03. In the case of UAACAGUGGGCCACAGCAGAAGCGUCCACGUCGCAGCCCCUGUCAGACCCUGGUGAAUCUGCGAAUUCUGCUGUAUAUCUC [G7U U26C U48C U49C], the self-cleavage is reported as 0.06. Work on UAACAGUGGGCCACAGCAGAAGCGUGCACGUCGCAGCCCCUGUCAGAUUCUGGUGAAUCUGCGAACUCUGCUGUAUAUCAC [G7U U26G U66C U80A] yielded a self-cleavage of 0.11. Work on UAACAGUGGGCCACAGCAGAAGCGUUCACGCCACAGCCCCUGUCAGAUUCUGGUGAAUCAGCGAAUUCUACUGUAUAUCUC [G7U U31C G33A U60A G70A] yielded a self-cleavage of 0.06. For UAACAGUGGGCCACAGCAGAAGCGUUCACGGCGCAGCCCCUGCCAGGUUCUGGUGAAUCUGCGAAUUCUGCUGCAUAUCUG [G7U U31G U43C A47G U74C C81G], the self-cleavage was 0.04. UAACAGUGGGCCACAGCAGAAGCGUUCACGGCGCAGCCCCUGUCAGAUUCUGGUGAAUCUGCGAAUUCUGCUGUAUAUCCC [G7U U31G U80C] gave a self-cleavage of 0.1. UAACAGUGGGCCACAGCAGAAGCGUUCACGUCGCAGCCCCAGUCAGAUUCUUGAGAAUCUGCGAAUUCUGCCGUAAAUCUC [G7U U41A G52U U54A U72C U76A] showed a self-cleavage of 0.32. For UAACAGUGGGCCACAGCAGAAGCGUUCACGUCGCAGCCCCUGCCAGAUUCUGGUGAAUCUGCGAAUUCUGCUGAAUAUCUC [G7U U43C U74A], the self-cleavage was 0.42. With UAACAGUGGGCCACAGCAGAAGCGUUCACGUCGCAGCCCCUGUCAGACUCUGGUGAAUCUGCGAAUACUGCUGUAUAUCUC [G7U U48C U67A] the self-cleavage was 0.08. Variant UAACAGUGGGCCACAGCAGAAGCGUUCACGUCGCAGCCCCUGUCAGAUUCAGGUGAAUCUGCGAAUACUGCUGAGUAUCUC [G7U U51A U67A U74A A75G] has a self-cleavage of 0.26. Variant UAACAGGAGGCCGCAGCAGAAGCGUUCACGUCGCAGCCCUUGUCAGAUUCUGGUACGUCUGCGAAUUCUGCUGUACAUCUC [G8A A13G C40U G55A A56C A57G U76C] has a self-cleavage of 0.05. Variant UAACAGGAGGCCGCAGCAAAAGCGAUCACGUCGCAGCCCCCGUCAGAUUCUGGUGAAUCUGCGAGUUCUGCUGUAUAUCUC [G8A A13G G19A U25A U41C A65G] has a self-cleavage of 0.05. Variant UAACAGGAGGCCUCUGCAGAAGCGUACACGUCGCAGCCCCUGUCAGAUUCAGGUGAAUCUGCGAAUUCUGCUGUAUAUCCC [G8A A13U A15U U26A U51A U80C] has a self-cleavage of 0.07. With UAACAGGAGGCCUCAGCAGAAGCGUUCACGUCGCUGCCCCUGUCAGAUUCUGGUGAAUCUGCGGAUUCUGCUGUAUAUCUC [G8A A13U A35U A64G] the self-cleavage was 0.13. With UAACAGGAGGCCUCAGAAGAAGCGUUCACGUCGCAGCCCCUGUCAGAUUCUGGUGAAUCUGCGAAUUCUGCUGUAUAUCUC [G8A A13U C17A] the self-cleavage was 0.35. With UAACAGGAGGCCUCAGUAGAAGCGUUCACGUCGCAGCCCCUGUCAGAUCCUGGUGAAUCUGCGAAUUCUGCCGUAUAUCUC [G8A A13U C17U U49C U72C] the self-cleavage was 0.23. UAACAGGAGGCCUCAGCAGAAGCGUGCACGUAGCAGCCCCUGUCAGAUUCUGGUGAAUCUGCGAAUUCUGCUGUAUAUCUC [G8A A13U U26G C32A] gave a self-cleavage of 0.06. Work on UAACAGGAGGCCUCAGCAGAAGCGUUCACGUCGCAGCCCCUGUCAGACUCUGAUGAAUCUGCGAAUUCUGCUGUAUAUCUC [G8A A13U U48C G53A] yielded a self-cleavage of 0.07. For UAACAGGAGGCCACGGCGGAAGCGCUCUCGUCGCAGCCCCUGUCAGAUUCUGGUGAAUCUGCGAAUUCUGCUGUAUAUCUC [G8A A15G A18G U25C A28U], the self-cleavage was 0.05. UAACAGGAGGCCACGGCAGGAGCGUUCACGUCGCGGCCCCUGUCAGAUUCUGGUGAAUCUGCGAAUUCCGCUGUAUAUCUC [G8A A15G A20G A35G U69C] showed a self-cleavage of 0.02. Work on UAACAGGAGGCCACGGCAGAGGCGAUCACGUCGCCGCCCCUGUCAGAUUCUGGUGAAUCUGCGAAUUCUGCUGUAUAUCUC [G8A A15G A21G U25A A35C] yielded a self-cleavage of 0.04. In the case of UAACAGGAGGCCACGGCAGAAGCGUUCGCGUCGCAGCCCCUGUCAGAUUCUGGUGAAUCUGCGAAUUCUGCAGUAUAUCUC [G8A A15G A28G U72A], the self-cleavage is reported as 0.2. Variant UAACAGGAGGCCACGGCAGAAGCGUUCACGUCGCAGCCCCUGUCAGAUUCUGGUGAAUCUGCGAGUUCUGCCGAAUACCUC [G8A A15G A65G U72C U74A U78C] has a self-cleavage of 0.14. Work on UAACAGGAGGCCACGGCAGAAGCGUUCACGUCGCAGCCCUUGUCAGAAUCUGGUGGAUCUGCGAAUUCUGCUGUAUAUCUC [G8A A15G C40U U48A A56G] yielded a self-cleavage of 0.05. Work on UAACAGGAGGCCACUGCAGAAGCGCUCACGUCGCAGCCCCCGUCAGAUUCUGGUGAAUCUGAGAAUUCUGCUGUAUGUCUC [G8A A15U U25C U41C C62A A77G] yielded a self-cleavage of 0.16. With UAACAGGAGGCCACUGCAGAAGCGGUCACGUCGCAGCCACUGUCAGAUUCUGGUGAAUCUGCGAAUUCUGCUGUAUAUCUC [G8A A15U U25G C39A] the self-cleavage was 0.05. Work on UAACAGGAGGCCACAGCCGAAGCGUUCACGUCGCAGCCCCUGUCAGAUUCUGGUGAAUUUGCGAAUUCUGCUGUAUAUCUC [G8A A18C C59U] yielded a self-cleavage of 0.19. Variant UAACAGGAGGCCACAGCGGUAGCGUCCACGUCGCAGCCCCUGUCAGAUUCUGGUGAAUCUGCGAACUCUGCUGUAUAUCUC [G8A A18G A20U U26C U66C] has a self-cleavage of 0.19. In the case of UAACAGGAGGCCACAGCGGAAGCGUUCUCGUCGCAGCCCCUGUCAGAUUCUGGUGAAUCUGCGAACUCUGCUGUAUAUCUC [G8A A18G A28U U66C], the self-cleavage is reported as 0.06. Work on UAACAGGAGGCCACAGCGGAAGCGUUCACGUCGCAGCCCCCGUCAGAUUCUGGUGAGUCUGCGAAUUCUGCUGUACAUCUC [G8A A18G U41C A57G U76C] yielded a self-cleavage of 0.07. Variant UAACAGGAGGCCACAGCUGAAGCGUUCACGUCGCAGCCCCUGUCAGGUUCUGGUGAAUCUGCGAAUUCUGCUGUAUAUCUC [G8A A18U A47G] has a self-cleavage of 0.08. For UAACAGGAGGCCACAGCUGAAGCAUUCACGUCGCAGCCCCGGUCAGAUUCUGGCGAGUCUGCGAAUUCUGCUGUAUAUCCC [G8A A18U G24A U41G U54C A57G U80C], the self-cleavage was 0.04.
